Measurements as given in the supplement of paper PMC4604168 (melanoma cell lines).
This is one part of the list. Most values come without repeats; read them as rough.

Test system: 501Mel
Assay: cell count relative to DMSO control; melanoma cells; higher = more viable cells
Conditions: library dose: low library concentration; 72 h
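Further: cell number obtained by counting DAPI-stained nuclei in high-throughput microscope images with image analysis software, screen run in 1,536-well plates.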

| SMILES | cell count [%] |
| --- | --- |
| O=C(/C=C/c1cccnc1)NCCCCC1CCN(C(=O)c2ccccc2)CC1 + COc1cc2ncnc(Nc3ccc(Oc4ccccc4)cc3)c2cc1OC [SrcI1] (first compound 0.01 µM, partner dose 2 µM) | 58.8 |
| O=C(/C=C/c1cccnc1)NCCCCC1CCN(C(=O)c2ccccc2)CC1 + O=S(=O)(c1ccccc1)N(CC(F)(F)F)c1ccc(C(O)(C(F)(F)F)C(F)(F)F)cc1 [T0901317] (first compound 0.01 µM, partner dose 1.4 µM) | 74.4 |
| CC1(C)CCC(c2ccc(Cl)cc2)=C(CN2CCN(c3ccc(C(=O)NS(=O)(=O)c4ccc(N[C@H](CCN5CCOCC5)CSc5ccccc5)c(S(=O)(=O)C(F)(F)F)c4)cc3)CC2)C1 + COc1cc(N2CCC(N3CCN(C)CC3)CC2)ccc1Nc1ncc(Cl)c(Nc2ccccc2S(=O)(=O)C(C)C)n1 [NVP-TAE684] (first compound 0.4 µM, partner dose 0.08 µM) | 68.6 |
| Cc1ccc(Nc2nccc(N(C)c3ccc4c(C)n(C)nc4c3)n2)cc1S(N)(=O)=O [Pazopanib] + CCN(CC)CCCCNc1ncc2cc(-c3cc(OC)cc(OC)c3)c(NC(=O)NC(C)(C)C)nc2n1 [PD173074] (first compound 0.4 µM, partner dose 0.1 µM) | 92.6 |
| CC1(C)CCC(c2ccc(Cl)cc2)=C(CN2CCN(c3ccc(C(=O)NS(=O)(=O)c4ccc(N[C@H](CCN5CCOCC5)CSc5ccccc5)c(S(=O)(=O)C(F)(F)F)c4)cc3)CC2)C1 + O=C(Nc1ccccc1)c1cc([N+](=O)[O-])ccc1Cl [GW9662] (first compound 0.4 µM, partner dose 2 µM) | 101 |
| O=C(/C=C/c1cccnc1)NCCCCC1CCN(C(=O)c2ccccc2)CC1 + c1cc(-c2cnn3cc(-c4ccc(OCCN5CCCCC5)cc4)cnc23)ccn1 [Dorsomorphin] (first compound 0.01 µM, partner dose 0.4 µM) | 71.1 |
| Cc1ccc(Nc2nccc(N(C)c3ccc4c(C)n(C)nc4c3)n2)cc1S(N)(=O)=O [Pazopanib] + CCCCCCCCCCCC1=C(O)C(=O)C=C(O)C1=O [Embelin] (first compound 0.4 µM, partner dose 1.2 µM) | 99.7 |
| Cc1ccc(Nc2nccc(N(C)c3ccc4c(C)n(C)nc4c3)n2)cc1S(N)(=O)=O [Pazopanib] + COc1ccc(-c2ccc3c(N4CCOCC4)nc(N4C[C@@H](C)O[C@@H](C)C4)nc3n2)cc1CO [KU0063794] (first compound 0.4 µM, partner dose 0.02 µM) | 81.2 |
| O=C(/C=C/c1cccnc1)NCCCCC1CCN(C(=O)c2ccccc2)CC1 + Cn1cncc1[C@@](N)(c1ccc(Cl)cc1)c1ccc2c(c1)c(-c1cccc(Cl)c1)cc(=O)n2C [tipifarnib] (first compound 0.01 µM, partner dose 0.01 µM) | 75 |
| Cc1ccc(Nc2nccc(N(C)c3ccc4c(C)n(C)nc4c3)n2)cc1S(N)(=O)=O [Pazopanib] + Oc1nc(-c2ccc(C(F)(F)F)cc2)nc2c1CSCC2 [XAV939] (first compound 0.4 µM, partner dose 2 µM) | 114 |
| O=C(/C=C/c1cccnc1)NCCCCC1CCN(C(=O)c2ccccc2)CC1 + COc1ccc2c(c1)CCC1C2CCC2(C)C(NCCCCCCN3C(=O)C=CC3=O)CCC12 [U73122] (first compound 0.01 µM, partner dose 0.4 µM) | 65.2 |
| CC1(C)CCC(c2ccc(Cl)cc2)=C(CN2CCN(c3ccc(C(=O)NS(=O)(=O)c4ccc(N[C@H](CCN5CCOCC5)CSc5ccccc5)c(S(=O)(=O)C(F)(F)F)c4)cc3)CC2)C1 + NC(=O)c1ccc(N(C(N)=O)c2c(F)cccc2F)nc1-c1ccc(F)cc1F [VX702] (first compound 0.4 µM, partner dose 0.4 µM) | 30.9 |
| CC1(C)CCC(c2ccc(Cl)cc2)=C(CN2CCN(c3ccc(C(=O)NS(=O)(=O)c4ccc(N[C@H](CCN5CCOCC5)CSc5ccccc5)c(S(=O)(=O)C(F)(F)F)c4)cc3)CC2)C1 + CCc1ccc(CCOc2ccc(CC3SC(=O)NC3=O)cc2)nc1 [pioglitazone] (first compound 0.4 µM, partner dose 2 µM) | 87 |
| O=C(/C=C/c1cccnc1)NCCCCC1CCN(C(=O)c2ccccc2)CC1 + Cc1ccc(NC(=O)c2cccc(N(C)C)c2)cc1NC(=O)c1ccc(O)cc1 [ZM336372] (first compound 0.01 µM, partner dose 2 µM) | 78.8 |
| Cc1ccc(Nc2nccc(N(C)c3ccc4c(C)n(C)nc4c3)n2)cc1S(N)(=O)=O [Pazopanib] + Cc1cc([N+](=O)[O-])ccc1NS(=O)(=O)c1cc(Cl)ccc1Cl [FH535] (first compound 0.4 µM, partner dose 1 µM) | 89.9 |
| CC1(C)CCC(c2ccc(Cl)cc2)=C(CN2CCN(c3ccc(C(=O)NS(=O)(=O)c4ccc(N[C@H](CCN5CCOCC5)CSc5ccccc5)c(S(=O)(=O)C(F)(F)F)c4)cc3)CC2)C1 + CCN(CC)CCCCNc1ncc2cc(-c3cc(OC)cc(OC)c3)c(NC(=O)NC(C)(C)C)nc2n1 [PD173074] (first compound 0.4 µM, partner dose 0.1 µM) | 95 |
| O=C(/C=C/c1cccnc1)NCCCCC1CCN(C(=O)c2ccccc2)CC1 + COc1ccc(-c2ccc3c(N4CCOCC4)nc(N4C[C@@H](C)O[C@@H](C)C4)nc3n2)cc1CO [KU0063794] (first compound 0.01 µM, partner dose 0.02 µM) | 64.1 |
| O=C(/C=C/c1cccnc1)NCCCCC1CCN(C(=O)c2ccccc2)CC1 + O=c1cc(-c2cccc3c2Sc2ccccc2S3)oc(N2CCOCC2)c1 [KU55933] (first compound 0.01 µM, partner dose 1 µM) | 82.5 |
| Cc1ccc(Nc2nccc(N(C)c3ccc4c(C)n(C)nc4c3)n2)cc1S(N)(=O)=O [Pazopanib] + COc1ccc(COc2ccc(Cc3cnc(N)nc3N)cc2OC)cc1 [GW2580] (first compound 0.4 µM, partner dose 1 µM) | 87 |
| CC1(C)CCC(c2ccc(Cl)cc2)=C(CN2CCN(c3ccc(C(=O)NS(=O)(=O)c4ccc(N[C@H](CCN5CCOCC5)CSc5ccccc5)c(S(=O)(=O)C(F)(F)F)c4)cc3)CC2)C1 + O=c1cc(-c2cccc3c2Sc2ccccc2S3)oc(N2CCOCC2)c1 [KU55933] (first compound 0.4 µM, partner dose 1 µM) | 90.8 |
| CC1(C)CCC(c2ccc(Cl)cc2)=C(CN2CCN(c3ccc(C(=O)NS(=O)(=O)c4ccc(N[C@H](CCN5CCOCC5)CSc5ccccc5)c(S(=O)(=O)C(F)(F)F)c4)cc3)CC2)C1 + N#Cc1c(O)c2c(-c3ccc(-c4ccccc4O)cc3)csc2[nH]c1=O [A769662] (first compound 0.4 µM, partner dose 2 µM) | 105 |
| CC1(C)CCC(c2ccc(Cl)cc2)=C(CN2CCN(c3ccc(C(=O)NS(=O)(=O)c4ccc(N[C@H](CCN5CCOCC5)CSc5ccccc5)c(S(=O)(=O)C(F)(F)F)c4)cc3)CC2)C1 + c1cc(-c2cnn3cc(-c4ccc(OCCN5CCCCC5)cc4)cnc23)ccn1 [Dorsomorphin] (first compound 0.4 µM, partner dose 0.4 µM) | 83.3 |
| O=C(/C=C/c1cccnc1)NCCCCC1CCN(C(=O)c2ccccc2)CC1 + Cc1cc(Nc2cc(N3CCN(C)CC3)nc(/C=C/c3ccccc3)n2)n[nH]1 [ENMD2076] (first compound 0.01 µM, partner dose 0.04 µM) | 62.2 |
| O=C(/C=C/c1cccnc1)NCCCCC1CCN(C(=O)c2ccccc2)CC1 + CC(C)CCN1c2nc(Nc3cc(F)c(O)c(F)c3)ncc2N(C)C(=O)C1C [BID1870] (first compound 0.01 µM, partner dose 0.2 µM) | 86.3 |
| O=C(/C=C/c1cccnc1)NCCCCC1CCN(C(=O)c2ccccc2)CC1 + Cc1cc([N+](=O)[O-])ccc1NS(=O)(=O)c1cc(Cl)ccc1Cl [FH535] (first compound 0.01 µM, partner dose 1 µM) | 91.5 |
| Cc1ccc(Nc2nccc(N(C)c3ccc4c(C)n(C)nc4c3)n2)cc1S(N)(=O)=O [Pazopanib] + O=C1NC(=O)/C(=C/c2ccc(-c3ccc(F)cc3O)o2)S1 [AS252424] (first compound 0.4 µM, partner dose 1 µM) | 78.2 |
| CC1(C)CCC(c2ccc(Cl)cc2)=C(CN2CCN(c3ccc(C(=O)NS(=O)(=O)c4ccc(N[C@H](CCN5CCOCC5)CSc5ccccc5)c(S(=O)(=O)C(F)(F)F)c4)cc3)CC2)C1 + O=C(O)C(=O)Nc1sc2c(c1C(=O)O)CCNC2 [TCS401] (first compound 0.4 µM, partner dose 1.66667 µM) | 82.3 |
| Cc1ccc(Nc2nccc(N(C)c3ccc4c(C)n(C)nc4c3)n2)cc1S(N)(=O)=O [Pazopanib] + CCc1ccc(CCOc2ccc(CC3SC(=O)NC3=O)cc2)nc1 [pioglitazone] (first compound 0.4 µM, partner dose 2 µM) | 93.3 |
| CC1(C)CCC(c2ccc(Cl)cc2)=C(CN2CCN(c3ccc(C(=O)NS(=O)(=O)c4ccc(N[C@H](CCN5CCOCC5)CSc5ccccc5)c(S(=O)(=O)C(F)(F)F)c4)cc3)CC2)C1 + Oc1nc(-c2ccc(C(F)(F)F)cc2)nc2c1CSCC2 [XAV939] (first compound 0.4 µM, partner dose 2 µM) | 110 |
